Several values for one entry are separate records, joined by “and”; a condition that tells them apart may be missing. Equal entries are not always repeated. In all, about 410,000 compounds went through this assay and about 310 (0.076%) were called active. Inconclusive results, whose numbers are uncertain, are shown with a selection of clear calls. Calls follow the shape of the dose curve; as a rule, active = well fitted curve in the direction sought with a large enough effect; inconclusive = small, poorly fitted or top-dose-only effect; inactive = flat fitted curve, though single readings scatter. Potencies of inconclusive entries are doubtful fits and often do not repeat.
What follows are compounds tested against DNA dC->dU-editing enzyme APOBEC-3G (Homo sapiens) (UniProt Q9HC16) (assay: qHTS for Inhibitors of Vif-A3G Interactions: qHTS). Conditions: HeLa A3G-eYFP + Vif (tagged APOBEC3G with the HIV-1 protein that degrades it), YFP fluorescence, overnight; series mostly up to 46.1 µM.
UniProt Q9HC16, sequence (Q9HC16 whole entry, looked up): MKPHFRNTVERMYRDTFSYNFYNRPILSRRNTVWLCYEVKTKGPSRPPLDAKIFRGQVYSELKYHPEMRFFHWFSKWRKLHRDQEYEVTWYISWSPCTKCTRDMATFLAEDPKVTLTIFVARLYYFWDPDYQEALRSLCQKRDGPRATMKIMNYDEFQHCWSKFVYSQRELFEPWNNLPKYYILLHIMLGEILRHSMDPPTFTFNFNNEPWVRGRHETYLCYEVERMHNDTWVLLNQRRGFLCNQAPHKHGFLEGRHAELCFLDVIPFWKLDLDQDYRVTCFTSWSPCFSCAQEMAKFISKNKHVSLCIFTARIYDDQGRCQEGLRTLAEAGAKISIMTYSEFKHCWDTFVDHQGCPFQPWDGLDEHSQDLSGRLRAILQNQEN
Procedure, shortened: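 Read-out is eYFP fluorescence (Ex 488/Em 500-530) from Vif-expressing HeLa A3G-eYFP cells; more signal means A3G escaped Vif-mediated degradation. Cells plated overnight, compound pinned in, incubated overnight at 37 deg C.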
With `COc1ccc(CCNC(=O)CC2Nc3cc(C)c(C)cc3NC2=O)cc1OC` (configuration not stated) the Potency was inconclusive: 20 µM [inhibitor, single point].
With `COc1ccccc1CNC(=O)CSc1nnc(C)c2c(C)n(-c3ccccc3)nc12` the Potency was inconclusive: 35.5 µM [inhibitor, single point].
In the case of `CC(=O)OCCNc1cc(N2CCN(C)CC2)c2noc3c2c1C(=O)c1ccccc1-3`, the Potency is reported as inconclusive: 31.6 µM [inhibitor, single point].
In the case of `O=C(/C=C/c1ccccc1Cl)Nc1cccc(O)c1`, the Potency is reported as inconclusive: 22.4 µM [inhibitor, single point].
With `CNc1nc(Nc2ccc(C)c(Cl)c2)nc(N)c1[N+](=O)[O-]` the Potency was inconclusive: 0.316 µM [inhibitor, full curve, poor fit].
With `O=C(NNC(=O)C1CCCCC1)c1cnccn1` the Potency was “inactive”.
With `Cc1cc(O)c(Oc2cc(C)cc(O)c2O)c(O)c1` the Potency was inconclusive: 22.4 µM [inhibitor, single point].
For `Cc1nc([N+](=O)[O-])c(Br)n1CC(=O)c1ccccc1`, the Potency was inconclusive: 22.4 µM [inhibitor, single point].
`O=C(NCc1cccnc1)C1CCN(c2ccc(S(=O)(=O)N3CCOCC3)cc2Cl)CC1` was tested, and the Potency was inconclusive: 5.62 µM [inhibitor, partial curve, poor fit].
`O=C(Nc1ccccc1F)C(=Cc1sc(N2CCOCC2)nc1-c1ccccc1)C(=O)Nc1ccccc1F` was tested, and the Potency was inconclusive: 3.55 µM [inhibitor, full curve, poor fit].
`COc1ccc(-c2cn(Cc3ccc(C(=O)c4ccccc4)cc3)nn2)cc1` was tested, and the Potency was inconclusive: 3.16 µM [inhibitor, full curve, poor fit].
With `CN(Cc1ccccc1)S(=O)(=O)c1nnc(NC(=O)c2ccccc2Cl)s1` the Potency was “inactive”.
For `COc1cccc(/C=N/n2c(SC)nnc2-c2ccccc2)c1O`, the Potency was inconclusive: 7.94 µM [inhibitor, partial curve, poor fit].
For `O=CNc1ccc2c3c(cccc13)-c1ccccc1-2`, the Potency was active: 12.6 µM.
For `CCOC(=O)c1c(C)n(C)c2ccc(OC)c(NC(=O)CN3CCSCC3)c12`, the Potency was “inactive”.
For `Cc1ccc(S(=O)(=O)N2C[C@H]3n4c(=O)ccc(=O)n4C[C@H](OC(=O)Nc4cccs4)[C@@]3(O)C2)cc1`, the Potency was inconclusive: 20 µM [inhibitor, single point].
With `CS(=O)(=O)C1=NSC2=NC(=O)/C(=C\c3cccn3-c3ccccc3Cl)C(=N)N21` the Potency was inconclusive: 28.2 µM [inhibitor, single point].
In the case of `N#CC1C(=N)Cc2ccccc2-c2ccccc21` (configuration not stated), the Potency is reported as inconclusive: 10 µM [inhibitor, partial curve].
`C=CC[C@@H](CC(=O)N[C@@H](CO)Cc1ccccc1)C(=O)N[C@@H](C)COC(=O)[C@@H](CC=C)Cc1ccc(F)cc1` was tested, and the Potency was “inactive”.
`CC[n+]1c(/C=C2\C=C(C)CC(C)C2)sc2ccccc21` (configuration not stated) was tested, and the Potency was “inactive”.
With `O=C(N/N=C\c1cc(Br)c(Br)o1)C1COc2ccccc2O1` (configuration not stated) the Potency was inconclusive: 35.5 µM [inhibitor, single point].
For `Cc1ccc(NC(=O)CSc2nncn3c2cc2sccc23)cc1F`, the Potency was inconclusive: 22.4 µM [inhibitor, partial curve, poor fit].
For `CN(C)c1ccc(C(C[N+](=O)[O-])c2c(N)n(C)c(=O)n(C)c2=O)c(F)c1C#N` (configuration not stated), the Potency was inconclusive: 22.4 µM [inhibitor, single point].
For `COc1cccc(-c2ccc3c(N)c(C(=O)c4ccc(F)cc4)sc3n2)c1`, the Potency was inconclusive: 22.4 µM [inhibitor, single point].
In the case of `O=[N+]([O-])/C(C=Nc1ccccc1O)=C\Nc1ccccc1O`, the Potency is reported as “inactive”.
`C=CCN1C(=O)[C@@H]2Cc3c([nH]c4ccccc34)C(c3ccc(O)cc3)N2C1=S` (some centres not stated) was tested, and the Potency was inconclusive: 3.16 µM [inhibitor, single point].
For `N#Cc1c(C(F)(F)F)cc(-c2ccco2)nc1SCc1ccccn1`, the Potency was inconclusive: 15.8 µM [inhibitor, partial curve, poor fit].
With `Cc1cc(C(=O)CCl)c(C)n1CCc1ccc(Cl)cc1` the Potency was inconclusive: 22.4 µM [inhibitor, single point].
For `CCOc1ccc(CN2C(=O)c3ccccc3Sc3ccc(C(=O)NCCCN4CCOCC4)cc32)cc1`, the Potency was inconclusive: 8.91 µM [inhibitor, partial curve] and inconclusive: 10 µM [inhibitor, partial curve, poor fit].
With `O=C(c1cnn2c1NC(=C1CC1)C=C2C(F)F)N1CCc2ccccc2C1` the Potency was “inactive”.
In the case of `COC(=O)c1cc2c(-c3ccccc3)c(C)c3ccccn3c-2c1C(=O)OC`, the Potency is reported as “inactive”.
In the case of `COc1ccc2[nH]c(-c3cccc(F)c3)cc(=O)c2c1`, the Potency is reported as inconclusive: 1.12 µM [inhibitor, full curve, poor fit].
In the case of `CN1CCN(c2ccc([N+](=O)[O-])cc2C(=O)c2ccc(Br)cc2)CC1`, the Potency is reported as inconclusive: 2.82 µM [inhibitor, full curve, poor fit].
With `Cc1cccc(NC(=O)CCN2C(=O)C3C4C=CC(C4)C3C2=O)n1` (configuration not stated) the Potency was “inactive”.
In the case of `CCOC(=O)C1=C(O)C(Nc2nccs2)(C(F)(F)F)N=C1C` (configuration not stated), the Potency is reported as inconclusive: 5.62 µM [inhibitor, single point].
In the case of `N#C/C(=C/c1ccc(N2CCCCCC2)o1)c1ccc(Cl)cc1`, the Potency is reported as inconclusive: 17.8 µM [inhibitor, partial curve, poor fit].
In the case of `CC(=O)Nc1ccc(OCC(O)Cn2cnc3ccccc32)cc1` (configuration not stated), the Potency is reported as “inactive”.
With `COc1ccc(Cn2c(-c3ccc(OC)c(O)c3)nc3ccccc32)cc1O` the Potency was inconclusive: 22.4 µM [inhibitor, single point].
For `COC(=O)C1=C(C(=O)OC)C(C(=O)OC)N2C=CC=CC2=C1C(=O)OC` (configuration not stated), the Potency was “inactive”.
For `COc1cc2c(cc1OC)C(C)N(C(=O)c1cc(C)on1)CC2` (configuration not stated), the Potency was inconclusive: 1.41 µM [inhibitor, full curve, poor fit].
For `CC(C)N1CCc2c(sc(NC(=O)c3ccc4ccccc4c3)c2C(N)=O)C1`, the Potency was inconclusive: 28.2 µM [inhibitor, single point].
For `Cn1sc(NC(=O)c2ccccc2Cl)nc1=O`, the Potency was “inactive”.
For `C=CC[C@H](CC(=O)NCCO)C(=O)N[C@H](COC(=O)[C@@H](CC=C)CC(=O)OC(C)(C)C)Cc1ccccc1`, the Potency was “inactive”.
For `CCN(c1ccccc1)S(=O)(=O)c1ccc(NC(=O)c2nc(S(C)(=O)=O)ncc2Cl)cc1`, the Potency was inconclusive: 5.62 µM [inhibitor, single point].
In the case of `CCOC(=O)CC(=O)CSc1nc2ccc(C)cc2cc1C#N`, the Potency is reported as “inactive”.
For `CCn1c(/C=C/c2c(C)[nH]c3ccccc23)nc2ccccc2c1=O`, the Potency was inconclusive: 11.2 µM [inhibitor, partial curve].
`CCC(CO)Oc1cc(NC(=O)c2ccc(OC)cc2)c2ncn(C(C)C)c2c1` (configuration not stated) was tested, and the Potency was “inactive”.
In the case of `CNS(=O)(=O)c1cc(C(=O)O)ccc1OC`, the Potency is reported as “inactive”.
With `Cc1cc(C)nc(Nc2nc(C(N)Cc3ccccc3)cs2)n1` (configuration not stated) the Potency was active: 4.47 µM.
With `Cc1cccc(NC(=O)/C(C#N)=C/c2ccc(F)cc2)n1` the Potency was “inactive”.
In the case of `CCOC(=O)/C(=C\C=C1/Sc2ccccc2N1CC)C(C)=O`, the Potency is reported as inconclusive: 3.55 µM [inhibitor, partial curve, poor fit].
For `CCOC(=O)C1CCN(C(=O)COc2ccc(Br)cc2Br)CC1`, the Potency was “inactive”.
For `Cc1c(C(=O)NCc2cccc(C(F)(F)F)c2)sc(=O)n1Cc1ccccc1F`, the Potency was “inactive”.
For `O=[N+]([O-])c1cc(/C=N/Nc2nc3ccccc3[nH]2)c(O)cc1O`, the Potency was inconclusive: 3.16 µM [inhibitor, partial curve, poor fit].
`COC(=O)c1ccc(S(=O)(=O)N2CCc3ccccc32)cc1` was tested, and the Potency was inconclusive: 10 µM [inhibitor, partial curve].
In the case of `C=CC(=O)Nc1cccc(Oc2cc(Cl)nc3[nH]ccc23)c1`, the Potency is reported as inconclusive: 11.2 µM [inhibitor, partial curve].
In the case of `COc1ccc(C(O)c2ncc(-c3cccc4ccccc34)[nH]2)cc1F` (configuration not stated), the Potency is reported as inconclusive: 11.2 µM [inhibitor, partial curve, poor fit].
`Nc1c(Cl)ncnc1N/N=C/c1ccccn1` was tested, and the Potency was inconclusive: 35.5 µM [inhibitor, single point].
In the case of `COc1ccc(C(=O)N(C)Cc2cnn(Cc3ccccc3)c2)cc1S(=O)(=O)N1CCOCC1`, the Potency is reported as inconclusive: 2.51 µM [inhibitor, full curve, poor fit].
With `CN(C)c1ccc(/C=C2\SC(=O)N(CCc3nnc(N)s3)C2=O)cc1` the Potency was inconclusive: 11.2 µM [inhibitor, partial curve, poor fit].
For `Cc1cc(NC(=O)NC(=O)c2ccccc2NC(=O)CN)ccc1Oc1ncc(Br)cn1`, the Potency was inconclusive: 1.12 µM [inhibitor, full curve].
`CC1=C(C(=O)OCc2ccccc2)C(c2ccccc2OS(=O)(=O)c2ccc([N+](=O)[O-])cc2)NC(=O)N1CCCC(=O)O` (configuration not stated) was tested, and the Potency was inconclusive: 35.5 µM [inhibitor, single point].
In the case of `CC1CCCC(C)N1C(=O)CSc1nnc(COc2cccc3cccnc23)o1` (configuration not stated), the Potency is reported as “inactive”.
In the case of `O=C(/C=C/c1ccccc1)NC(=O)c1ccccc1O`, the Potency is reported as “inactive”.
With `Cc1ccc(NC(=O)CSc2nc(-c3ccco3)nc3cc(=O)[nH]n23)cc1C` the Potency was inconclusive: 15.8 µM [inhibitor, single point].
For `CCOC(=O)c1ccc(NC(=O)COc2ccccc2CNCCc2ccccc2)cc1`, the Potency was “inactive”.
`O=C(CSc1ccccc1)Nc1ccc(-c2nc3ccccc3[nH]2)cc1` was tested, and the Potency was inconclusive: 35.5 µM [inhibitor, single point].
Also: nearly all actives have a fitted effect of over 60% in size.
Potency is read from the fitted curve at half-maximal effect.
